In the RNAGym collection of RNA variant scans (doi:10.7554/elife.90254):
Read counts are not given, so values of variants with three or more changes are uncertain.

B1: LINE1-mini (parent)
chain: GGCAGAGCUCAACACAGCGUGGCAAAGUGGCUGUGGCUAGACUGCC

Variants of: B1
Assay: self-cleavage, relative activity (ratio to wild type); higher = more cleavage; in vitro, sequencing; the parent is a self-cleaving ribozyme

| Variant | self-cleavage |
| --- | --- |
| GGAAGAGCUCAACACAGCGUGGCACAGUGGCUGUGAUUAGACAGCC [C3A A25C G36A C37U U43A] | 0.12 |
| GGCUGAGCUCAACGCAGCGUGGCAAAGUGGCUGGGGCUAGACUGCC [A4U A14G U34G] | 0.06 |
| GGUAGAGCUCAACACAGCGUGGCAAACUGGCUUUGGCGAAACUGCC [C3U G27C G33U U38G G40A] | 0.02 |
| GCCAGAGCUCAACACAGCGUGGCAAAGUAGCUGUGGAUAGACUGCC [G2C G29A C37A] | 0.02 |
| CGCAGAGCUCAACACAGCGUGGCAAAGUGGCUGAGGGCAGACUGCC [G1C U34A C37G U38C] | 0.01 |
| GGCAGAGCUCAACACAGUGUGCCAAAGUGGCUGUGGCUAGACUGUC [C18U G22C C45U] | 1.4 |
| GGCUGAGCUCAAUACAGCGUGGCAAACUGGCUAUGGCUAGACUGCC [A4U C13U G27C G33A] | 0.15 |
| GACAGAGCUCAACACAGCGUCGCAACGUGGCGGUGGCUAGACUGCC [G2A G21C A26C U32G] | 0.15 |
| GGCAGAGCUAAACACAGCCUGGCACAGUGGCUGUGGCUAGACUGCC [C10A G19C A25C] | 0.02 |
| GGCAGAGCGUAACACAGCGUGGCAAAGUGGCUGUGGCUUGACUGCC [U9G C10U A39U] | 0.06 |
| CGCAGAGCUCGACACAGCGUGGCAAAGUAGCUGUGGCUAGACUGCC [G1C A11G G29A] | 0.03 |
| GACAGAGCUUAACACAGCGUGGCAAAGUGGCUCUGGCUAGACUGCC [G2A C10U G33C] | 0.05 |
| GGCAGAGCUCAACACAGGGUGGCAAAGUGGCUUUGGCCAGACUGCC [C18G G33U U38C] | 0.03 |
| GGCUGAGCUAAACACAGCGAGGCAAAGUGGCUGUGGAUAGACUGCC [A4U C10A U20A C37A] | 0.02 |
| GGCAUAGGUCAUCACAGCGUGGCAAAGUGGCUGUGGCUAGACUGCC [G5U C8G A12U] | 0.03 |
| GGCAGAGCUCAACACAGCGUGGCAAACUGGCUAUGGCUAGACAGCC [G27C G33A U43A] | 0.02 |
| GGCGGAGCUUCACACAGCGUGGCAAAGUGGCUGUGGCAAGACUGCC [A4G C10U A11C U38A] | 0.01 |
| GGCAGAGCUCAACACAGCGUGACAAAGUGGCUGUGCCUAGAGUGCC [G22A G36C C42G] | 0.35 |
| GGCAGAGACUAACACAGCGUGGCAAAGUGGCUGUGGCUAUACAGCC [C8A U9C C10U G40U U43A] | 0.05 |

| Variant | self-cleavage |
| --- | --- |
| UGCAGAGCUCAACACAGCGUGGCAAAGUGGCUGUAGAUAGACUGCC [G1U G35A C37A] | 0.06 |
| GGCAGAUCUCAACACAGCGUGAUAAAGUGGCUGUGGCUAGACUGCC [G7U G22A C23U] | 0.05 |
| GGGAGAGCUCAACACAGCGGGCCAAAUUGGCUGUGGCUAGACUGCA [C3G U20G G22C G27U C46A] | 1.13 |
| CGCAGAGCUCAACACAGCGUGGCAAAGUGGCCGUGGCUCGACUGCC [G1C U32C A39C] | 0.01 |
| GGCAGAGCUAAACUCAGCGUGGCAAAGUUGCUAUGGCUAGACUGCC [C10A A14U G29U G33A] | 0.02 |
| UGCAGAGCUUAACACAGCGCCGCAAAGUGGCUGUGGCUAGACGGCC [G1U C10U U20C G21C U43G] | 0 |
| GGUAGUGGUCAACACAGCGUGGCAAAGUGGCUGUGGCUAGACUGGC [C3U A6U C8G C45G] | 0.92 |
| GGCAGAGCUCAAAACAGCGUGGCAGAUUGGCUGUGGCUAGACUGCC [C13A A25G G27U] | 0.19 |
| GGCAAAGCGCAAAACAGCGUGGCAAAGGGGCUGCGGCUAGACUGCC [G5A U9G C13A U28G U34C] | 0.02 |
| GACUGAGCUAAACACAGCGUGGCAAAGUGGAUGUGGCUAGACUGCC [G2A A4U C10A C31A] | 0.16 |
| CGCAGAGCUCAAUACAGCGAAGCAAAGUGGCUGUGGCUUGACUGCC [G1C C13U U20A G21A A39U] | 0.03 |
| GGCAGAGCUCAAUACAGCGGGUCAAAGUGGCUGUGGCUAGACUGCC [C13U U20G G22U] | 0.05 |
| GGAAGAGCUCAACACAGCGUGGCAAAGGGGCUGUGGCUCGACUGCA [C3A U28G A39C C46A] | 0.07 |
| GGCAGAGCUCAACACAGCGCGGCAAAGGGGCUGUGGUCAGACUGCC [U20C U28G C37U U38C] | 0.04 |
| GGCAAGGCUCAACAUAGCGUGGCAAAGUGGCUGAGGCUAGACUGCC [G5A A6G C15U U34A] | 0.08 |
| GGCAGAUCUCCACACAGCGUGGCAAAGUGGCUGUGGCUAGACCGCC [G7U A11C U43C] | 0.05 |
| GGCAUAGCUCAACACAGCGUGGAGAAGUUGCUGUGGCUAGACUGCC [G5U C23A A24G G29U] | 0.01 |
| GGCAGAGCACUACACAGCAUGGCAAAGUGGUUGUGGCUAGGCUGCC [U9A A11U G19A C31U A41G] | 0.01 |
| GGAAGAGCUCAACACAGCGUGGGAAAGUUGCUGUCGCUAGACUGCC [C3A C23G G29U G35C] | 0.27 |

| Variant | self-cleavage |
| --- | --- |
| GGUAGAGCUAAACACAGCGUGUCAAAGUAGCUGUGGCUAGACUGCC [C3U C10A G22U G29A] | 0.02 |
| GGCAGAGCUCAACACAGAGUGGUAGAGUCGCUGUGUCUAGAAUGCC [C18A C23U A25G G29C G36U C42A] | 0.02 |
| GACAGAGCUCAACACAGCGUGGGCAAGUGGCUGUGGCUAGACUGCC [G2A C23G A24C] | 0.35 |
| GUCAGAACUCAACACAGCGUGGCAAAGUGGCUGUUGCUAGACUCCC [G2U G7A G35U G44C] | 0.3 |
| GUCAGAGCUCAACACAGCGUGGCAAAGUGGCUUUGGCUAGACAGCC [G2U G33U U43A] | 0 |
| GGCAGACAUCAACACAGCGUGGCAAAGUGGCUGUCGCUAGACUGCC [G7C C8A G35C] | 0.05 |
| GACUGAGCUCAACACAGCGUGGCAAAGUAGCUUUGACUAGUCUGCC [G2A A4U G29A G33U G36A A41U] | 0.06 |
| CGCAGAGCUCAACACAGCGUGGCAAAGUGGAUGUGGCUAGAGUGCC [G1C C31A C42G] | 0.01 |
| GGGCGAGCUCAACAAAUCGUGGCAAAGUGGCUGUGGCUAGACUGCC [C3G A4C C15A G17U] | 0.03 |
| GGCAAAGCUCAACACAGCGUGACAAAGUGGCUGUGGCUAGACUGUC [G5A G22A C45U] | 0.39 |
| GUCAGAGCUCAACACAGCGUGGCAAAGUGUCUGUGGCUAUACUGCC [G2U G30U G40U] | 0.02 |
| GGUAGAGCUCAACACCGCCUGGCAAAGAGGCUGUGGCUAGACUGCC [C3U A16C G19C U28A] | 0.07 |
| GGCAUAGCUCAACACAGCGUGGCAAACUGGAUGUGGCUAGACUGCC [G5U G27C C31A] | 0.02 |
| GGCAGAGAUCAACACAGCGUGGCAAAGUCGCUGUGGCUGGACUGCC [C8A G29C A39G] | 0.02 |
| GUCUGAGCUCAACACAGCGUAGCAAAGUGGCUGUGGCUAGUAUGCC [G2U A4U G21A A41U C42A] | 0.12 |
| GACAGAGCACAACACAGCGUGGCAAAGUGGCUGUGGCUAGACUGUC [G2A U9A C45U] | 0.22 |
| GGCAGAGCGCAUCACAGCGUGGCAAAGUGGCUGUGGCUAGACCGCC [U9G A12U U43C] | 0 |
| GGAAGAGCCCAACACAGCGAGGCAAAGUGGCUGUGGCUAGACUGCC [C3A U9C U20A] | 0.05 |
